In the test the test system is NCI-H322M lung. Kind of test: NCI-60 cell line screen, 48 h.

Values joined by “and” are separate entries in the source; they are usually repeats but may differ in a detail not shown here. Identical values can stand only once.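 Five concentrations, 48 hours, 96-well plates. GI50: concentration for 50% inhibition of growth. TGI: total growth inhibition.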

The compound `CCC(/C(=N\Nc1c(Cl)cc(Cl)cc1Cl)c1ccccc1)n1ccnc1C` (configuration not stated) returned a TGI of 27.5 µM. Still for that read-out and setting: in the case of `CN(C)/C(N)=N/C(N)=S` it was above 100 µM; in that of `CCSc1nc2n(c(=S)n1)CCN2C`, 51.7 µM. `N#Cc1c2nc3ccccc3nc2n2ccc3ccccc3c12` yielded a TGI above 100 µM. On the same count and under the same terms, the figure for `CC1=C(C)C(=O)OC([C@](C)(O)[C@]2(O)CC[C@@]3(O)[C@@H]4C[C@H]5O[C@]56CC=CC(=O)[C@]6(C)[C@H]4CC[C@]23COC(=O)c2ccc(C)o2)C1` (some centres not stated) is above 21.3 µM. Consider `O=S(=O)(NCCCNc1cc(-c2cn(-c3ccccc3)nc2-c2cccc(O)c2)ccn1)c1ccc(Cl)cc1`, for which the GI50 was 2.9 µM and the TGI came to 20.1 µM.

Compound `Cc1cc(-c2nc3cc(F)c(F)cc3s2)ccc1N` yielded a TGI above 100 µM.

`Cc1cc(-c2ccccc2)cc2[n+]1CC=C2` returned a TGI above 100 µM. In the case of `COc1ccc(CNc2nc(NCc3ccc(OC)cc3)c3n[nH]c(C(C)C)c3n2)cc1`, the GI50 was 8.56 µM and the TGI worked out at 33.4 µM. Take `CCCCCC(/C=N/N)C(O)(C(F)(F)F)C(F)(F)F` (configuration not stated): the TGI is above 10 µM. Still for that read-out and setting: in the case of `CCOC(=O)C1(Cc2ccccc2)Cc2ccccc2C1=O` (configuration not stated) it was above 100 µM. As for `S=C(N/N=C(/c1ccccc1)c1ccccn1)Nc1cccc(Cl)c1`, the GI50 was 2.12 µM; the TGI was 2.71 µM and 18.4 µM. Turning to `C/C(=N/N)c1ccc2[nH]c3c(C)cc([N+](=O)[O-])c(C)c3c2c1`, the TGI came out at 28.9 µM.

As to `Cc1ccccc1/C=C1\CN(C(=O)OC(C)(C)C)C/C(=C\c2ccccc2C)C1=O`, the GI50 was 3.38 µM and the TGI is 11.4 µM.

For the compound `O=C(CN1CCN(c2ccc(Cl)cc2)CC1)N1CCN(c2nnc(-c3ccccc3)c(-c3ccccc3)n2)CC1`, the GI50 is above 100 µM and the TGI is above 100 µM. `COC(=O)NN1C(=O)C(=P(c2ccccc2)(c2ccccc2)c2ccccc2)C(C(=O)OC)=C1C` had a TGI above 100 µM. Compound `CN(C)/C=N/S(=O)(=O)c1nn2c(C=O)c(-c3ccc(-c4ccc([N+](=O)[O-])cc4)o3)nc2s1` gave a TGI of 28.3 µM.

Regarding `O=C(CCl)Nc1ccc2c(c1)C(=O)c1ccc(NC(=O)CCl)cc1C2=O`, the GI50 is 1.81 µM and the TGI amounted to 4.82 µM. For `O=C(Nc1ccc(Br)cc1F)c1cc(Br)ccc1O` the same measures were 0.442 µM and 9.15 µM. `CC(=O)c1ccc(NCN2C(=O)c3ccccc3C2=O)cc1` showed a TGI above 100 µM. Same read-out and setting: in the case of `CN1OC2OC(=O)OC2[C@H]1[C@H]1O[C@H](c2ccccc2)OC1(C)c1cc(OC(=O)c2ccccc2)ccc1OC(=O)c1ccccc1` (some centres not stated) it was above 50 µM; in that of `Cc1ccc(C)c(NC(=O)C(Cc2c[nH]c3ccccc23)NC(=O)OCc2ccccc2)c1` (configuration not stated), 44.4 µM; in that of `CC1=CC2C(C(C)C)CC1C1C(=O)OC(=O)C21` (configuration not stated), above 100 µM. Same read-out and setting: the figure for `Cc1cccc(NC(=S)N/N=C(/c2ccccc2)c2ccccn2)c1` is 4.72 µM. The compound `O=C(N/C(=C\c1ccccc1)C1Nc2ccccc2C(=O)O1)c1ccccc1` (configuration not stated) had a TGI above 100 µM. The compound `Cn1c(=O)c2nc(N3CCCCC3)cnc2n(C)c1=O` gave a TGI above 100 µM. Same read-out and setting: the figure for `Cn1c(=S)sc2nc3ccccc3n2c1=S` is 29.2 µM. As to `CN(C)/C=N/c1nc2ncn(CCOC(=O)c3ccccc3)c2c(=O)[nH]1`, the TGI was above 100 µM. With `O=C([O-])c1ccccc1Nc1ccccc1[O-].[Ni+3].[OH3+].[OH3+].[OH3+]`, the GI50 is above 100 µM and the TGI was above 100 µM. Regarding `C[C@]12CC[C@H]3[C@@H](C[C@@H]4N=C(c5ccc(O)cc5)S[C@@]45C[C@H](O)CC[C@]35C)[C@@H]1CC[C@@H]2O`, the GI50 is 31.1 µM and the TGI is above 100 µM.

Take `COc1cc(/C=C(\C#N)c2ccccn2)cc(Br)c1O`: the TGI was above 100 µM.

Turning to `COc1ccc(C#CCC(OC2OC(CO)C(O)C(O)C2O)C(O)c2ccc(OC)c(OC)c2)cc1OC` (configuration not stated), the TGI was above 100 µM.

As for `Cc1c2cccc-2c(OCCO)cc2c1[nH]c1ccccc12`, the TGI was above 41.4 µM.

Source of the values: PubChem BioAssay (NCI).
